We go through 83 variants from the RNAGym collection of RNA variant scans (doi:10.1093/nar/gkz1192).

Read counts are not given, so values of variants with three or more changes are uncertain.

To fix the notation:
B1: CPEB3 Ribozyme (parent)
chain: UAACAGGGGGCCACAGCAGAAGCGUUCACGUCGCAGCCCCUGUCAGAUUCUGGUGAAUCUGCGAAUUCUGCUGUAUAUCUC

In the data set the parent is B1. Description: self-cleavage, relative activity (ratio to wild type); higher = more cleavage; in vitro, sequencing. In outline: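 Relative activity compares each variant's cleaved/total read fraction with that of the unmutated ribozyme. To get these fractions, barcoded CPEB3 ribozyme libraries from rounds of error-prone PCR were transcribed with T7 RNA polymerase for 5 hours at 37°C and then given 15 min of DNase I treatment before EDTA was added. The RNAs were reverse transcribed with template switching and sequenced on Illumina, and DNA sequencing linked barcodes to variants. A minimum of 5 reads applied, and three batches were averaged.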
As for C11U A18G U31C A64G A65G U80C, the self-cleavage is 0.05.
Consider C11U A21G G24A U74A U78C, for which the self-cleavage is 0.05.
The result for C11U A20U U31C U72A G73A reads 0.05; that for C11U C27G U72A A75G, 0.02; that for C11U U41C U49A U54C C62A A64G U67C, 0.06.
Take C12G U41A C59U: the self-cleavage worked out at 0.09.
In the case of C12G A18U A28G A65C A77G C81U, the self-cleavage was 0.04.
In the case of C11U A45G U51G U78C, the self-cleavage came to 0.09.
For the variant C12U A20G A35G U60A U66C G70A, the self-cleavage stood at 0.2.
Consider C12G U49C G63A U67C, for which the self-cleavage amounted to 0.06.
Then C12A A15U U72C, with 0.88; and C12A A13G A18G A45U U48C, with 0.17.
As for C12U A18G A35G, the self-cleavage came out at 0.33.
On to C11U A21G G61A, for which the self-cleavage worked out at 0.42.
On to C11U C12U U26C U69C, for which the self-cleavage is 0.08.
The result for C11U A45U U49A U67A U69C U80C reads 0.04.
On to C12A A45G A65G, for which the self-cleavage was found to be 0.45.
On to C11U U25A A28C A57G U58A U66C U67C, for which the self-cleavage was determined as 0.11.
For the variant C12U A13U A21G U51C A56U A57G C62U, the self-cleavage stood at 0.28.
Then C12G U25C A28G C32A U41G U51A, with 0.06; and C11U A28G A64G, with 0.16.
Then C12G U48C U51A, with 0.11.
Then C12U A18U U78A, with 0.74; and C11U G24A U49C A64U U72C U76C, with 0.06; and C12U A35U C79U, with 1.23.
Regarding C12U A21G G22A A56U A57G, the self-cleavage worked out at 0.12.
As to C12U A15U U43C U58C U69A A77U, the self-cleavage came to 0.02.
As for C11U U26A G52A U80C, the self-cleavage worked out at 0.35.
On to C11G U54C A64G U78A, for which the self-cleavage was determined as 0.26.
The result for C12A C23G U41C U49C U67A reads 0.07; that for C11U A15U U26C U51C A57G, 0.17; that for C11U U26C U41G G70A U80C, 0.09.
Consider C12U A20U A56G U58A, for which the self-cleavage came to 0.11.
As to C12A A18U C50G, the self-cleavage worked out at 0.21.
Turning to C12A A65G C79A, the self-cleavage came to 0.79.
On to C11U A15G A28G C50U U80C, for which the self-cleavage worked out at 0.15.
In the case of C11U C29U A75U, the self-cleavage stood at 0.29.
Then C11U G30A C32U C50U A56U A64U U80C, with 0.03; and C11U C59U A64U, with 0.09; and C12G C17A G33C C40A U51C U54A A77G, with 0.27.
Then C12U A20U A56G, with 0.39; and C12U A45G A47U, with 0.61; and C11U U41A A75G, with 0.11.
Consider C12A A28U U60A U72C A75G U80C, for which the self-cleavage was found to be 0.53.
Consider C12A A15G A75U, for which the self-cleavage turned out to be 1.2.
As for C12U A20G U60C, the self-cleavage was found to be 0.56.
The result for C12U A18G A20G G24A U25C U60C reads 0.03; that for C12U A28U U72C, 0.97.
C11U A15G U26C U48C U80G: the self-cleavage was 0.04.
On to C12U A15G G19C G61U U66C, for which the self-cleavage was found to be 0.13.
Consider C11U A20C U54A A56G, for which the self-cleavage worked out at 0.06.
As to C11U A20G U69A A75U, the self-cleavage was 0.26.
Then C12U A13U A21U C38U A57C U66C U69C, with 0.05; and C11G U66A U72A, with 0.28; and C11U A35U U72C U80C, with 0.18.
For C11G U58C C59U U69C A77G, the self-cleavage is 0.08.
The result for C11U G33A U41C U54A reads 0.2; that for C12U A15U A18G U26C U41C U49C A64G, 0.04; that for C12G A13G G24A U26C U31C, 0.22.
Then C11U A20U U49C, with 0.19; and C12A A13U A20G A21G U51C U60C, with 0.23; and C12A U26C U43G A56U U60C U74C, with 0.23.
Then C11U A28G A65C, with 0.34; and C11U A18G A75G, with 0.09.
Consider C11U A64G U78C, for which the self-cleavage turned out to be 0.15.
Consider C11U A64G U78A, for which the self-cleavage turned out to be 0.25.
As for C12A A13G U43A U72C, the self-cleavage is 0.5.
On to C12A A21G G22A U54C, for which the self-cleavage was found to be 0.21.
C12G U26A C32G A57G U69A: the self-cleavage was 0.05.
For the variant C11U A20G A35G G46U A56U, the self-cleavage amounted to 0.17.
Take C12U A20G A64U A65U: the self-cleavage was found to be 0.1.
The result for C11U A15G G30A U48C U54C A64U reads 0.04; that for C12U A13G U78C, 0.91.
As for C12U A28G U54C U66C U67C, the self-cleavage was 0.07.
For C11U G22C U41C U51C A56G U74C, the self-cleavage stood at 0.09.
As to C11U G30U U49G C71U, the self-cleavage was 0.07.
With C11U C12U U31C, the self-cleavage was determined as 0.27.
As for C11U A15U C40G A65G, the self-cleavage stood at 0.01.
Regarding C11U A20G A35G G46U, the self-cleavage is 0.44.
As to C12A A65G U69C, the self-cleavage is 0.31.
The result for C12U A15G A20G U72C A77G reads 0.79; that for C11U G33A A56U C71U U72C A77G, 0.03; that for C11U G16A A18C U31C U41G, 0.06.
